In paper PMC5700166:
This is a selection; strong and weak results do not stand in their true shares. The list includes weakly bound sequences.

Legend:
Test in all cases: protein-binding microarray (PBM)
Settings in all cases: PBM: ~300 nM protein, 6 mM HEPES pH 7.8, 80 mM KCl, 0.5 mM EDTA, 0.5 mM EGTA, 6% glycerol, 35 ng/ul poly-dIdC, 1% milk, 1 h, room temperature; Ap Aiptasia and Nv Nematostella (sea anemones) / Co Capsaspora / Aq Amphimedon (sponge) / Dm Drosophila / Hu human; RHD is the Rel homology domain; high values mean tight binding; most listed sequences are background and not binding sites; double strand, one strand shown
GST-Ap-NF-kB RHD = molecular target: T1, GST-Ap-NF-kB RHD (UniProt A0A913YAJ5)
T1 sequence: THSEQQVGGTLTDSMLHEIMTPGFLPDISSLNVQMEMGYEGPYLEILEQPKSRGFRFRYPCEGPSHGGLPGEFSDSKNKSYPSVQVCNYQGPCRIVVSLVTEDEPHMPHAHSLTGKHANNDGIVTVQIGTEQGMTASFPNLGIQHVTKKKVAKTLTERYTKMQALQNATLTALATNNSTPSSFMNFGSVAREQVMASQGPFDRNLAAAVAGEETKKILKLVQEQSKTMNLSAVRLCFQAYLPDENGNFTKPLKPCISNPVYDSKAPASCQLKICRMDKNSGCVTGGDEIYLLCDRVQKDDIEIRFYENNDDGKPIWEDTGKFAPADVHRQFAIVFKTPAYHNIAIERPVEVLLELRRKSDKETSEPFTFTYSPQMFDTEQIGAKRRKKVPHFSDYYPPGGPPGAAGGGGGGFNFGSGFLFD

[1] = molecular target: T2, GST-Nv-NF-kB (Cys allele) (UniProt E5G601)
T2 sequence: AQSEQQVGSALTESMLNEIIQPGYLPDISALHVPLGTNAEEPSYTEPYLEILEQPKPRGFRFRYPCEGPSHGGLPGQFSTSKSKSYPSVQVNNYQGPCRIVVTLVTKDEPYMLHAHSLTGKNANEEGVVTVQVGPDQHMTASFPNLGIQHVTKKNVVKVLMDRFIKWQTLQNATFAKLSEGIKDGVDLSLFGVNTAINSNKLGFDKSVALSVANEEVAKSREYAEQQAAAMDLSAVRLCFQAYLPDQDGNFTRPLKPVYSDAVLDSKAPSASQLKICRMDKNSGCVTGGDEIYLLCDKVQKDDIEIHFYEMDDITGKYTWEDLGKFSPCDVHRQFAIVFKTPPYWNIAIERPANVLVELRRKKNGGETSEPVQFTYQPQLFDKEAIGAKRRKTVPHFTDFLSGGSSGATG

GST-Co-NF-kB = molecular target: T3, GST-Co-NF-kB (UniProt F1ARL5)
T3 sequence: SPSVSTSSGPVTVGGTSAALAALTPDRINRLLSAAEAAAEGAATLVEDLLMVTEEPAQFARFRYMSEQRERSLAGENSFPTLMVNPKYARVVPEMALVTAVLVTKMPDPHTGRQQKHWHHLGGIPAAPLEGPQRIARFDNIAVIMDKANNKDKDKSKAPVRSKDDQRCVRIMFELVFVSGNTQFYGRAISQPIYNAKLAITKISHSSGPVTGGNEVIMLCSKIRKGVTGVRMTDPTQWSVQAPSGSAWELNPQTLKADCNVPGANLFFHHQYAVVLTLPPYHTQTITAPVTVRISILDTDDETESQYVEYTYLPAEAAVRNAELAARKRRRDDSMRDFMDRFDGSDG

GST-Dm-Relish = molecular target: T4, GST-Dm-Relish (UniProt Q94527)
T4 sequence: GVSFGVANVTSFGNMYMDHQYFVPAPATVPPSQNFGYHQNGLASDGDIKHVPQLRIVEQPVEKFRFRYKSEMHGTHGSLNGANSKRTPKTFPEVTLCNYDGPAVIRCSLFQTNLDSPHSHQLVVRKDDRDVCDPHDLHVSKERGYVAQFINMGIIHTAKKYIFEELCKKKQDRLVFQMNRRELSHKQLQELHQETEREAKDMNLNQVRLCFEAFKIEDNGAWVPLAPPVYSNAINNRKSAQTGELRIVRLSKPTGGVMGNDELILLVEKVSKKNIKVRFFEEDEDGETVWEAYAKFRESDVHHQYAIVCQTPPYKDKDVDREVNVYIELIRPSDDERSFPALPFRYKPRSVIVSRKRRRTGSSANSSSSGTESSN

GST-Aq-NF-kB = molecular target: T5, GST-Aq-NF-kB (UniProt A9Y5G7)
T5 sequence: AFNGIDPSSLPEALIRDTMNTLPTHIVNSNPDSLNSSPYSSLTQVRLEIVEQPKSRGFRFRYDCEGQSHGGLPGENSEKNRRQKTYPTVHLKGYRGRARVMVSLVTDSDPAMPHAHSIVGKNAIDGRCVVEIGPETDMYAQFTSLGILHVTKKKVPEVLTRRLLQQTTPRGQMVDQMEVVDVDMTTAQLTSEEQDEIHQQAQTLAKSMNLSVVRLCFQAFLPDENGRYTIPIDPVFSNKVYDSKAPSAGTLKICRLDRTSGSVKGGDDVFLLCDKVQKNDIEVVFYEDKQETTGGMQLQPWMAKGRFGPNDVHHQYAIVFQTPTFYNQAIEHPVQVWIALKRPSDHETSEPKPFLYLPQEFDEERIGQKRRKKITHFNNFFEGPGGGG

Sequence: CCGATTAACATCACTGACAGTCATGATGTTAATCGGGTCTTGATTCGCTTGACGCTGCTG
- binding signal (GST-Ap-NF-kB RHD): -0.132 z-score
- binding signal [1]: 0.245 z-score
- binding signal (GST-Co-NF-kB): -0.792 z-score
- binding signal (GST-Dm-Relish): -0.513 z-score
- binding signal (GST-Aq-NF-kB): -0.435 z-score

Sequence: CCGATTAACATCAGCTCGCGTATTGATGTTAATCGGGTCTTGATTCGCTTGACGCTGCTG
- binding signal (GST-Ap-NF-kB RHD): -0.119 z-score
- binding signal [1]: -0.493 z-score
- binding signal (GST-Co-NF-kB): 0.152 z-score
- binding signal (GST-Dm-Relish): -0.448 z-score
- binding signal (GST-Aq-NF-kB): -0.535 z-score

Sequence: CCGATTAACATCAATGGATTTCCTGATGTTAATCGGGTCTTGATTCGCTTGACGCTGCTG
- binding signal (GST-Ap-NF-kB RHD): -0.733 z-score
- binding signal [1]: -0.542 z-score
- binding signal (GST-Co-NF-kB): -0.0464 z-score
- binding signal (GST-Dm-Relish): 1.12 z-score
- binding signal (GST-Aq-NF-kB): 0.4 z-score

Sequence: CCGATTAACATCACCTAACTTGATGATGTTAATCGGGTCTTGATTCGCTTGACGCTGCTG
- binding signal (GST-Ap-NF-kB RHD): 0.187 z-score
- binding signal [1]: -0.0189 z-score
- binding signal (GST-Co-NF-kB): 0.646 z-score
- binding signal (GST-Dm-Relish): 0.352 z-score
- binding signal (GST-Aq-NF-kB): 0.704 z-score

Sequence: CCGATTAACATCAGACGAGACCGTGATGTTAATCGGGTCTTGATTCGCTTGACGCTGCTG
- binding signal (GST-Ap-NF-kB RHD): -0.648 z-score
- binding signal [1]: -0.143 z-score
- binding signal (GST-Co-NF-kB): -0.09 z-score
- binding signal (GST-Dm-Relish): -0.16 z-score
- binding signal (GST-Aq-NF-kB): -0.316 z-score

Sequence: CCGATTAACATCAGGTACTTCCATGATGTTAATCGGGTCTTGATTCGCTTGACGCTGCTG
- binding signal (GST-Ap-NF-kB RHD): 2.51 z-score
- binding signal [1]: 2.6 z-score
- binding signal (GST-Co-NF-kB): 0.0969 z-score
- binding signal (GST-Dm-Relish): 5.93 z-score
- binding signal (GST-Aq-NF-kB): 2.23 z-score

Sequence: CCGATTAACATCAGCATACTATTTGATGTTAATCGGGTCTTGATTCGCTTGACGCTGCTG
- binding signal (GST-Ap-NF-kB RHD): -0.149 z-score
- binding signal [1]: -1.05 z-score
- binding signal (GST-Co-NF-kB): 0.445 z-score
- binding signal (GST-Dm-Relish): -0.549 z-score
- binding signal (GST-Aq-NF-kB): -0.371 z-score

Sequence: CCGATTAACATCACCGAACTAACTGATGTTAATCGGGTCTTGATTCGCTTGACGCTGCTG
- binding signal (GST-Ap-NF-kB RHD): 0.587 z-score
- binding signal [1]: -0.0576 z-score
- binding signal (GST-Co-NF-kB): 0.301 z-score
- binding signal (GST-Dm-Relish): 0.62 z-score
- binding signal (GST-Aq-NF-kB): 0.329 z-score

Sequence: CCGATTAACATCAGCTCTAACTGTGATGTTAATCGGGTCTTGATTCGCTTGACGCTGCTG
- binding signal (GST-Ap-NF-kB RHD): -0.54 z-score
- binding signal [1]: -0.368 z-score
- binding signal (GST-Co-NF-kB): -0.762 z-score
- binding signal (GST-Dm-Relish): -0.159 z-score
- binding signal (GST-Aq-NF-kB): -0.544 z-score

Sequence: CCGATTAACATCAGCGAAATTCCTGATGTTAATCGGGTCTTGATTCGCTTGACGCTGCTG
- binding signal (GST-Ap-NF-kB RHD): -0.206 z-score
- binding signal [1]: -0.356 z-score
- binding signal (GST-Co-NF-kB): -0.509 z-score
- binding signal (GST-Dm-Relish): 0.315 z-score
- binding signal (GST-Aq-NF-kB): 0.273 z-score

Sequence: CCGATTAACATCAATGATCACTCTGATGTTAATCGGGTCTTGATTCGCTTGACGCTGCTG
- binding signal (GST-Ap-NF-kB RHD): -0.335 z-score
- binding signal [1]: 0.119 z-score
- binding signal (GST-Co-NF-kB): -0.0997 z-score
- binding signal (GST-Dm-Relish): 0.162 z-score
- binding signal (GST-Aq-NF-kB): -0.185 z-score

Sequence: CCGATTAACATCAATGGTGCGAGTGATGTTAATCGGGTCTTGATTCGCTTGACGCTGCTG
- binding signal (GST-Ap-NF-kB RHD): 0.755 z-score
- binding signal [1]: 0.0356 z-score
- binding signal (GST-Co-NF-kB): 0.389 z-score
- binding signal (GST-Dm-Relish): 0.0605 z-score
- binding signal (GST-Aq-NF-kB): -0.185 z-score
